According to patent publication US12145987B2, “Method for depleting cytotoxic T cells using an anti-LAG-3 antibody composition” (Daiichi Sankyo Company, Limited, priority 2017, dated 2024):
Residue numbers refer to the chain shown, from its start.

B1: hLA212_H3/L1: humanized antibody; heavy chain positions 20 to 470 of SEQ ID No: 30, light chain positions 21 to 234 of SEQ ID No: 32 (antibody)
heavy: EVQLVESGGGLVQPGGSLRLSCAASGFTYRSYVMAWVRQAPGKGLEWVASISTGGGNTYYRDSVKGRFTISRDNAKNTLYLQMDSLRAEDTAVYYCAEDMSNSGYGLFDYWGQGTLVTVSSASTKGPSVFPLAPSSKSTSGGTAALGCLVKDYFPEPVTVSWNSGALTSGVHTFPAVLQSSGLYSLSSVVTVPSSSLGTQTYICNVNHKPSNTKVDKRV[left out - human IgG1 Fc]
light: DIQMTQSPSSLSASVGDRVTITCKAGQNVDNNIAWYQQKPGQAPKLLIYYASNRNTGVPSRFSGSGSGTDFTLTISSLQPEDFATYYCQRISNSPYTFGQGTKVEIKRTVAAPSVFIFPPSDEQLKSGTASVVCLLNNFYPREAKVQWKVDNALQSGNSQESVTEQDSKDSTYSLSSTLTLSKADYEKHKVYACEVTHQGLSSPVTKSFNRGEC
B2: hLA212_H3/L3: humanized antibody; heavy chain positions 20 to 470 of SEQ ID No: 30, light chain positions 21 to 234 of SEQ ID No: 36 (antibody)
heavy: B1 heavy
light: B1 light with D1N, Q38K, A43S, S60D, S65G, S67Y, T85F
B3: hLA212_H3/L4: humanized antibody; heavy chain positions 20 to 470 of SEQ ID No: 30, light chain positions 21 to 234 of SEQ ID No: 38 (antibody)
heavy: B1 heavy
light: B1 light with L11M, A13I, I21M, Q38K, A43S, L78V, V104L, I106L

Columns and labels:
[1] = molecular target: T1, human LAG-3 expressed on 293T-lacZ cells (Homo sapiens, UniProt P18627); experiment: Binding activity to 293T-lacZ cells expressing human LAG-3 by flow cytometry; conditions: mean fluorescence intensity
T1 construct: An expression plasmid of the full-length human LAG-3 was introduced into the 293T cells stably expressing β-galactosidase; expressed in transfected cells; host or cells: 293T-lacZ cells (293T stably expressing β-galactosidase), transient transfection
T1 sequence (P18627 23-525): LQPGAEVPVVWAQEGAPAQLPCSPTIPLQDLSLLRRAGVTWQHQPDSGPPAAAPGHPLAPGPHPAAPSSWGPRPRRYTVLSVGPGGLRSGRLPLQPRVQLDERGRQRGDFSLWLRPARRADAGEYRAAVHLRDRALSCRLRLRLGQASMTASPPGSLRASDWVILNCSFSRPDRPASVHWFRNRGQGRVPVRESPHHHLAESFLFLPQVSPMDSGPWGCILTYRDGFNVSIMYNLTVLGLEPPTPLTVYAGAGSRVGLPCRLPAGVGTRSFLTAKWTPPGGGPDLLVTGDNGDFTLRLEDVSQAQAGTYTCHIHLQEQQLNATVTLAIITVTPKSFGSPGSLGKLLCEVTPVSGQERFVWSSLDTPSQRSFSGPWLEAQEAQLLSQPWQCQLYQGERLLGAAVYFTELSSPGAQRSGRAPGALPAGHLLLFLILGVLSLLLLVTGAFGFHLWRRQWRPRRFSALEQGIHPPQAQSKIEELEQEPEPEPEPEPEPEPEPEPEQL
Description: (§1) The expression plasmid pcDNA3.1-hLAG-3 of human LAG-3 was introduced into the 293T-lacZ cells (described in Example 1)-5-1), using Lipofectamine 2000 (manufactured by Invitrogen Corp.), and the cells were cultured for 1 day and thereafter used for flow cytometry. The flow cytometry was performed according to the method described in Example 1)-4, except that an Anti-Human IgG PE conjugate (manufactured by Jackson ImmunoResearch Laboratories, Inc.) diluted 200-fold with a FACS buffer was used as the secondary antibody.
as §1, with “human LAG-3-expression” for “expression”, “pcDNA3.1/hLAG-3” for “pcDNA3.1-hLAG-3 of human LAG-3”, “but” for “except that”
The binding of the humanized anti-human LAG-3 antibody hLA212_H4/L2 to human LAG-3-expressing 293T-lacZ cells was investigated by flow cytometry according to the method described in Example 7)-2.

[2] = test system: 293T-lacZ cells expressing human LAG-3; experiment: In vitro ADCC assay, human PBMC effector cells, β-galactosidase release; format: cell-based; conditions: target 293T-lacZ/hLAG-3 cells, effector human PBMCs, percentage of cells lysed
Description: 293FT cells (Invitrogen Corp.) were transfected with pLenti6/V5-GW/lacZ, and ViraPower™ Packaging Mix (Invitrogen Corp.) according to the accompanying protocols to prepare a recombinant lentivirus to express the β-galactosidase gene. 293T cells were infected by the obtained recombinant lentivirus according to the protocol of ViraPower Lentiviral Expression Systems (Invitrogen Corp). Virus-infected cells were selected using 10 μg/mL blasticidin (Invitrogen Corp.) to obtain a line stably expressing β-galactosidase. An expression plasmid of the full-length human LAG-3 was introduced into the 293T cells stably expressing β-galactosidase (hereinafter, referred to as 293T-lacZ) using Lipofectamine 2000 (manufactured by Invitrogen Corp.), and the cells were cultured for 1 day and then dissociated and recovered using TrypLExpress (manufactured by Invitrogen Corp). The cells were washed twice with phenol red-free RPMI1640 containing 5% FBS (hereinafter, referred to as a “medium for ADCC”). The number of live cells was counted by the trypan blue dye exclusion test. The cells were resuspended to 1×10^5 cells/ml in a medium for ADCC and used as target cells.
PBMCs were separated from human peripheral blood by Ficoll centrifugation, and a suspension adjusted to a live cell density of 1.2×10^6 cells/mL in a medium for ADCC was used as effector cells.
The ADCC activity of the purified rat anti-human LAG-3 antibodies rLA204, rLA212, rLA225, rLA869, and rLA1264 was investigated by the following method. To a 96-well U-bottom microplate containing 50 μL/well of the antibody solution, was added 50 μL/well of the target cells (which will be hereinafter referred to as 293T-lacZ/hLAG-3 cells) of Example 1)-5-1, followed by standing at 4° C. for 30 minutes. Then, 75 μL/well of effector cells prepared as in Example 1)-5-2 (which was however suspended to 2×10^6 cells/mL) was added thereto, followed by centrifugation at room temperature at 1200 rpm for 5 minutes, and thereafter the cells were cultured overnight under conditions of 37° C. and 5% CO2. On the next day, 50 μl of the supernatant was recovered into a black plate (manufactured by Corning Inc). A solution of β-Glo assay system (manufactured by Promega Corp.) was added thereto at 50 μl/well. The luminescence intensity was measured using a plate reader (ENVISION; manufactured by PerkinElmer, Inc). The percentage of cells lysed by ADCC activity was calculated according to the following formula. Percentage of cells lysed (%)=(A−B)/(C−B)×100 • A: Count of each sample well • B: Average of spontaneous release (wells without antibody added) counts (n=3)
When adding the antibody, 50 μL of a medium for ADCC was added thereto. Except for that, the same operation as in the sample well was performed.
C: Average of maximum release (wells containing target cells lysed with a surfactant) counts (n=3)
When adding the antibody and adding the effector cells, 50 μL and 75 μL of a medium for ADCC were added thereto respectively. For the assay, 175 μl of the β-Glo assay system solution was added to each well containing the target cells and mixed therewith. A 100 μl aliquot thereof was added to a black plate to carry out the assay.
The ADCC activity of the humanized anti-human LAG-3 antibodies (hLA212) was investigated by the method described in Example 2)-2.
The in vitro ADCC activity of the humanized anti-human LAG-3 antibody hLA212_H4/L2 was evaluated by the method described in Example 7)-2.

Molecule	binding activity to 293T-lacZ cells expressing human LAG-3 [1]	ADCC activity on cells expressing human LAG-3 [2]
B1	concentration-dependent binding activity to the 293T-lacZ cells expressing human LAG-3, comparable to the human chimeric anti-LAG-3 antibody cLA212	concentration-dependent ADCC activity against the 293T-lacZ cells expressing human LAG-3, almost comparable to the human chimeric anti-LAG-3 antibody cLA212
B2	concentration-dependent binding activity to the 293T-lacZ cells expressing human LAG-3, comparable to the human chimeric anti-LAG-3 antibody cLA212	concentration-dependent ADCC activity against the 293T-lacZ cells expressing human LAG-3, almost comparable to the human chimeric anti-LAG-3 antibody cLA212
B3	concentration-dependent binding activity to the 293T-lacZ cells expressing human LAG-3, comparable to the human chimeric anti-LAG-3 antibody cLA212	concentration-dependent ADCC activity against the 293T-lacZ cells expressing human LAG-3, almost comparable to the human chimeric anti-LAG-3 antibody cLA212
